# Hit rate of the full screen: of about 39,000 compounds, about 220 (0.56%) showed activity. The list shows a part of the results.
# System: Escherichia coli K-12 BW25113
# Assay: relative growth (OD600 normalised to plate interquartile mean) (fraction); higher = less growth inhibition, active = 0.2 or less
# Conditions: 50 µM; LB; incubation time: overnight (16-24 h)
# 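Note: static incubation at 37 °C against the wild-type strain, values averaged over two biological replicates.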
row,SMILES,relative growth
1,CN(C)CCCNC(=O)C[C@@H]1CC[C@@H]2[C@H](COC[C@H](O)CN2C(=O)Nc2cc(Cl)cc(Cl)c2)O1,inactive: 0.987
2,C[C@@H]1CN([C@@H](C)CO)C(=O)c2cccc(NC(=O)Nc3ccc(F)cc3)c2O[C@H]1CN(C)Cc1ccc(Cl)c(Cl)c1,inactive: 1
3,CNC[C@@H]1OCCCC[C@H](C)Oc2ccc(NC(=O)c3ccncc3)cc2C(=O)N([C@@H](C)CO)C[C@H]1C,inactive: 1.03
4,Cc1noc(C)c1NC(=O)N(C)C[C@@H]1OCCCC[C@@H](C)Oc2ccc(NC(=O)CCC(F)(F)F)cc2C(=O)N([C@H](C)CO)C[C@@H]1C,inactive: 0.957
5,C[C@@H]1CN([C@H](C)CO)C(=O)c2cc(NC(=O)C3CCCCC3)ccc2O[C@@H](C)CCCCO[C@H]1CN(C)Cc1ccc(C(F)(F)F)cc1,inactive: 0.984
6,COc1ccc(CN(C)C[C@@H]2OCCCC[C@@H](C)Oc3ccc(NC(=O)NC4CCCCC4)cc3C(=O)N([C@H](C)CO)C[C@@H]2C)cc1,inactive: 0.997
7,COc1cccc(-c2cn(CC[C@@H]3CC[C@H](NC(=O)CN(C)C)[C@H](CO)O3)nn2)c1,inactive: 0.987
8,CN(C)C(=O)N1CCNCC1,inactive: 1.02
9,C[C@@H]1CN([C@H](C)CO)C(=O)c2cc(NC(=O)Nc3cccc4ccccc34)ccc2O[C@@H]1CN(C)S(=O)(=O)c1cccs1,inactive: 1.03
10,Cc1ccc(S(=O)(=O)N(C)C[C@@H]2Oc3ccc(NC(=O)Nc4ccc(C(F)(F)F)cc4)cc3CC(=O)N([C@@H](C)CO)C[C@@H]2C)cc1,inactive: 1.03
11,C[C@@H]1CCCCO[C@H](CN(C)Cc2ccc(Cl)c(Cl)c2)[C@@H](C)CN([C@H](C)CO)C(=O)c2cc(NC(=O)CCC(F)(F)F)ccc2O1,inactive: 1.01
12,O.O=C([O-])CC(O)(CC(=O)[O-])C(=O)[O-].[Li+].[Li+].[Li+],inactive: 1.17
13,Cc1ccc(S(=O)(=O)Nc2ccc3c(c2)C(=O)N([C@@H](C)CO)C[C@@H](C)[C@@H](CN(C)C(=O)Nc2cccc4ccccc24)OCCCC[C@@H](C)O3)cc1,inactive: 0.998
14,CC(C)NC(=O)N(C)C[C@@H]1Oc2ccc(NC(=O)CCN3CCOCC3)cc2CC(=O)N([C@H](C)CO)C[C@@H]1C,inactive: 0.998
15,CCCCn1c(-c2ccccc2)nc(-c2ccccc2)c1CN(Cc1ccc2c(c1)OCO2)Cc1ccc2c(c1)OCO2,inactive: 1.08
16,CC(C)NC(=O)N(C)C[C@H]1Oc2ccc(NC(=O)Nc3ccc4c(c3)OCO4)cc2CC(=O)N([C@@H](C)CO)C[C@@H]1C,inactive: 0.919
17,C[C@@H]1CN([C@@H](C)CO)C(=O)c2cc(C#Cc3ccncc3)cnc2O[C@H]1CN(C)S(=O)(=O)c1ccccc1F,inactive: 1
18,C[C@H]1CN([C@@H](C)CO)C(=O)c2cc(NC(=O)Nc3cccc4ccccc34)ccc2O[C@H]1CN(C)C(=O)NC1CCCCC1,inactive: 0.982
19,NC(=O)c1ccco1,inactive: 0.994
20,O=C(C[C@@H]1C=C[C@@H](NS(=O)(=O)c2ccc(F)cc2)[C@H](CO)O1)N1CCC(Cc2ccccc2)CC1,inactive: 1.01

row,SMILES,relative growth
1,C[C@H]1CN([C@@H](C)CO)C(=O)c2cc(C#Cc3ccccc3F)cnc2O[C@H]1CN(C)C(=O)Cc1ccncc1,inactive: 0.983
2,C[C@@H]1CN([C@@H](C)CO)C(=O)c2cc(NS(=O)(=O)c3cn(C)cn3)ccc2O[C@@H](C)CCCCO[C@H]1CN(C)CC1CC1,inactive: 0.986
3,COc1ccc(NC(=O)N(C)C[C@H]2Oc3c(NC(=O)C4CCOCC4)cccc3C(=O)N([C@H](C)CO)C[C@H]2C)cc1,inactive: 0.988
4,C[C@@H]1CN([C@H](C)CO)C(=O)c2cc(NC(=O)c3ccncc3)ccc2O[C@@H](C)CCCCO[C@@H]1CN(C)S(=O)(=O)c1ccc(Cl)cc1,inactive: 0.997
5,O=C1c2c(O)cccc2Cc2cccc(O)c21,inactive: 0.882
6,C[C@@H]1CN([C@@H](C)CO)C(=O)c2cccc(NC(=O)CCCCCC(=O)Nc3ccccc3N)c2O[C@H]1CN(C)Cc1ccc(Oc2ccccc2)cc1,inactive: 0.912
7,O=c1[nH]c2ccccc2n2cnnc12,inactive: 0.952
8,Cc1ccc(S(=O)(=O)N(C)C[C@H]2Oc3c(NC(=O)Nc4cccc5ccccc45)cccc3C(=O)N([C@@H](C)CO)C[C@@H]2C)cc1,inactive: 1.03
9,C[C@@H]1CN([C@H](C)CO)C(=O)c2cc(NS(=O)(=O)c3cn(C)cn3)ccc2O[C@@H](C)CCCCO[C@H]1CN(C)S(=O)(=O)c1ccccc1,inactive: 0.984
10,CCCN(C)C[C@H]1OCCCC[C@@H](C)Oc2ccc(NC(=O)c3ccccc3)cc2C(=O)N([C@H](C)CO)C[C@H]1C,inactive: 1
11,CCCN(C)C[C@@H]1OCCCC[C@@H](C)Oc2ccc(NS(C)(=O)=O)cc2C(=O)N([C@H](C)CO)C[C@H]1C,inactive: 1
12,O=C(C[C@H]1CC[C@@H]2[C@H](COC[C@@H](O)CN2S(=O)(=O)c2ccccc2)O1)N[C@@H]1CCN(Cc2ccccc2)C1,inactive: 1.01
13,C[C@H](CO)N1C[C@H](C)[C@H](CN(C)C(=O)Nc2ccccc2)Oc2ccc(NC(=O)CCN3CCOCC3)cc2C1=O,inactive: 0.973
14,C[C@H](CO)N1C[C@H](C)[C@H](CN(C)Cc2ccc(Cl)c(Cl)c2)OCCCC[C@H](C)Oc2ccc(NS(C)(=O)=O)cc2C1=O,inactive: 1.01
15,O=C(C[C@@H]1C[C@@H]2c3cc(NC(=O)C4CCOCC4)ccc3O[C@@H]2[C@@H](CO)O1)NCc1ccc(Cl)cc1,inactive: 0.984
16,C[C@@H]1CN([C@@H](C)CO)C(=O)Cc2cc(NS(=O)(=O)c3ccc(Cl)cc3)ccc2O[C@@H]1CN(C)S(=O)(=O)c1cn(C)cn1,inactive: 0.98
17,C[C@H](CO)N1C[C@H](C)[C@@H](CN(C)C(=O)CCC(F)(F)F)OCCCC[C@H](C)Oc2ccc(NS(=O)(=O)c3ccc(F)cc3)cc2C1=O,inactive: 0.986
18,CC1=Nc2ccccc2NC(C)(C)C1,inactive: 1
19,C[C@H]1CN([C@@H](C)CO)C(=O)Cc2cc(NC(=O)Nc3ccc(C(F)(F)F)cc3)ccc2O[C@@H]1CN(C)Cc1ccc(-c2ccccc2)cc1,inactive: 1.03
20,COCCOC(=O)N1C(=O)[C@@]2(c3cc(C#CCC(C(=O)OC)C(=O)OC)ccc31)[C@H](C(=O)N1CCCCCCC1)[C@H]1C(=O)O[C@H](c3ccccc3)[C@H](c3ccccc3)N1[C@@H]2c1ccc(O)cc1,inactive: 0.997

row,SMILES,relative growth
1,CCN1C(=O)[C@H]2[C@@H](O)CS[C@H]2C1=O,inactive: 1.03
2,Cn1cc(CN2CCO[C@]3(COCCN(S(C)(=O)=O)C3)C2)cn1,inactive: 0.996
3,C[C@@H]1CN([C@H](C)CO)S(=O)(=O)c2ccc(C#CC3(O)CCCC3)cc2O[C@H]1CN(C)C(=O)Cc1ccncc1,inactive: 1.01
4,C[C@H]1CN([C@@H](C)CO)S(=O)(=O)c2ccc(C#CC3CC3)cc2O[C@H]1CN(C)C(=O)c1cccc(F)c1,inactive: 1.01
5,C[C@@H]1CCCCO[C@H](CN(C)C(=O)Nc2cccc3ccccc23)[C@@H](C)CN([C@@H](C)CO)C(=O)c2cc(NC(=O)c3ccccc3)ccc2O1,inactive: 1.02
6,C[C@@H]1CN([C@H](C)CO)C(=O)c2cc(NC(=O)C3CCCCC3)ccc2O[C@@H](C)CCCCO[C@H]1CN(C)C(=O)Nc1ccc(C(F)(F)F)cc1,inactive: 1.03
7,CC(=O)c1ccc2c(c1)N(CCCN1CCN(CCO)CC1)c1ccccc1S2.O=C(O)C=CC(=O)O,inactive: 1.17
8,O=C(C[C@H]1CC[C@H]2[C@@H](COC[C@@H](O)CN2S(=O)(=O)c2ccccc2)O1)NCc1ccncn1,inactive: 0.982
9,C[C@@H]1CN([C@H](C)CO)C(=O)c2cc(NC(=O)c3ccccc3)ccc2O[C@@H](C)CCCCO[C@H]1CN(C)Cc1ccc(Cl)c(Cl)c1,inactive: 0.984
10,COc1ccc(S(=O)(=O)N(CC(=O)O)c2ccc(N(CC(=O)O)S(=O)(=O)c3ccc(OC)cc3)c3ccccc23)cc1,inactive: 1.02
11,Cn1c(=O)c2c(nc(SCCNS(=O)(=O)c3ccccc3)n2C)n(C)c1=O,inactive: 1.02
12,C[C@@H]1CN([C@@H](C)CO)C(=O)c2c(c3ccccc3n2C)-c2ccccc2CO[C@@H]1CN(C)C(=O)Nc1ccc(F)cc1,inactive: 1
13,Cc1ccc(S(=O)(=O)N(C)C[C@@H]2Oc3ccc(NC(=O)c4ccncc4)cc3CC(=O)N([C@H](C)CO)C[C@H]2C)cc1,inactive: 0.951
14,C[C@H]1CN([C@@H](C)CO)C(=O)Cc2cc(NS(=O)(=O)c3ccc(Cl)cc3)ccc2O[C@H]1CN(C)C,inactive: 0.979
15,CC(C)C#Cc1ccc2c(c1)O[C@@H](CN(C)S(=O)(=O)c1cn(C)cn1)[C@H](C)CN([C@@H](C)CO)S2(=O)=O,inactive: 0.991
16,COCC#Cc1ccc2c(c1)O[C@@H](CN(C)Cc1ccccc1F)[C@H](C)CN([C@@H](C)CO)S2(=O)=O,inactive: 1.05
17,COc1ccc2c3c(n(c2c1)C)[C@H](CO)N(C[C@]13CN(Cc2cccnc2)C1)S(=O)(=O)c1ccc(cc1)C,inactive: 1.01
18,C[C@@H]1CCCCO[C@@H](CN(C)C(=O)c2ccccc2)[C@@H](C)CN([C@H](C)CO)C(=O)c2cc(NC(=O)Nc3ccc(F)cc3)ccc2O1,inactive: 1.04
19,Oc1cccc2ccccc12,inactive: 0.924
20,COc1ccc(C#Cc2ccc3c(c2)[C@H]2[C@H](CCN2C(=O)Nc2ccc(C(F)(F)F)cc2)[C@@H](CO)N3C)cc1,inactive: 1.09
